{"source": "the supplement of paper PMC8728848", "binders": {"B1": {"name": "AFCNVH (Aspergillus fumigatus) (protein)", "chain": "MSLRGFHTTCDTIVLKDKHILSSRCKRPDGTYSFSEIDLNDCLGNNNGKFVWGGESFVDSASQVNLALEGGEGRPMLHAQLNDWHGSVQSASVNLGECIQNEAGGLEYMHC"}}, "test_in_all_cases": "glycan array binding signal (z-score within array); higher = stronger binding", "settings_in_all_cases": "glycan notation: IUPAC condensed, linker removed", "key": {"[1]": {"biological_target": "Gal(b1-4)GlcNAc(b1-3)Gal(b1-4)GlcNAc(b1-3)[Gal(b1-4)GlcNAc(b1-3)Gal(b1-4)GlcNAc(b1-6)]GalNAc", "outline": "(§1)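 Glycan array data were curated from 3228 arrays in the Consortium for Functional Glycomics database and kept only where the protein sequence was available. Glycan names were converted to IUPAC-condensed notation, and columns mapping to the same glycan were averaged. The binding signal is a within-array Z-score, averaged across arrays of the same protein sequence at different concentrations or buffers and across linkers. Negative Z-scores can be read as non-binding.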"}, "[2]": {"biological_target": "Gal(b1-4)GlcNAc(b1-3)Gal(b1-4)GlcNAc(b1-6)[Gal(b1-3)]GalNAc", "outline": "as §1"}, "[3]": {"biological_target": "Gal(b1-4)GlcNAc(b1-3)Gal(b1-4)[Fuc(a1-3)]GlcNAc(b1-3)Gal(b1-4)[Fuc(a1-3)]GlcNAc", "outline": "as §1"}, "[4]": {"biological_target": "Gal(b1-4)GlcNAc(b1-3)GalNAc", "outline": "as §1"}, "[5]": {"biological_target": "Gal(b1-4)GlcNAc(b1-3)[Fuc(a1-3)GlcNAc(b1-6)]Gal(b1-4)Glc", "outline": "as §1"}, "[6]": {"biological_target": "Gal(b1-4)GlcNAc(b1-3)[Gal(b1-4)GlcNAc(b1-6)]Gal(b1-4)GlcNAc", "outline": "as §1"}, "[7]": {"biological_target": "Gal(b1-4)GlcNAc(b1-3)[GlcNAc(b1-6)]Gal(b1-4)GlcNAc", "outline": "as §1"}, "[8]": {"biological_target": "Gal(b1-4)GlcNAc(b1-6)Gal(b1-4)GlcNAc", "outline": "as §1"}, "[9]": {"biological_target": "Gal(b1-4)GlcNAc(b1-6)GalNAc", "outline": "as §1"}, "[10]": {"biological_target": "Gal(b1-4)GlcNAc(b1-6)[Gal(b1-3)]GalNAc", "outline": "as §1"}, "[11]": {"biological_target": "Gal(b1-4)GlcNAc(b1-6)[Gal(b1-4)GlcNAc(b1-3)]GalNAc", "outline": "as §1"}, "Gal(b1-4)GlcNAc6P": {"biological_target": "Gal(b1-4)GlcNAc6P", "outline": "as §1"}, "Gal(b1-6)Gal": {"biological_target": "Gal(b1-6)Gal", "outline": "as §1"}, "Gal3S(b1-3)GalNAc": {"biological_target": "Gal3S(b1-3)GalNAc", "outline": "as §1"}, "Gal3S(b1-3)GlcNAc": {"biological_target": "Gal3S(b1-3)GlcNAc", "outline": "as §1"}, "[12]": {"biological_target": "Gal3S(b1-3)[Fuc(a1-4)]GlcNAc", "outline": "as §1"}, "Gal3S(b1-4)Glc": {"biological_target": "Gal3S(b1-4)Glc", "outline": "as §1"}, "Gal3S(b1-4)Glc6S": {"biological_target": "Gal3S(b1-4)Glc6S", "outline": "as §1"}, "Gal3S(b1-4)GlcNAc": {"biological_target": "Gal3S(b1-4)GlcNAc", "outline": "as §1"}, "[13]": {"biological_target": "Gal3S(b1-4)[Fuc(a1-3)]Glc6S", "outline": "as §1"}, "[14]": {"biological_target": "Gal3S(b1-4)[Fuc(a1-3)]GlcNAc", "outline": "as §1"}, "[15]": {"biological_target": "Gal3S(b1-4)[Fuc(a1-3)]GlcNAc6S", "outline": "as §1"}, "Gal3S4S(b1-4)GlcNAc": {"biological_target": "Gal3S4S(b1-4)GlcNAc", "outline": "as §1"}, "Gal3S6S(b1-4)GlcNAc": {"biological_target": "Gal3S6S(b1-4)GlcNAc", "outline": "as §1"}, "Gal3S6S(b1-4)GlcNAc6S": {"biological_target": "Gal3S6S(b1-4)GlcNAc6S", "outline": "as §1"}, "Gal4S(b1-4)GlcNAc": {"biological_target": "Gal4S(b1-4)GlcNAc", "outline": "as §1"}, "Gal4S6S(b1-4)GlcNAc": {"biological_target": "Gal4S6S(b1-4)GlcNAc", "outline": "as §1"}, "Gal6P(b1-4)GlcNAc": {"biological_target": "Gal6P(b1-4)GlcNAc", "outline": "as §1"}, "Gal6S(b1-3)GlcNAc": {"biological_target": "Gal6S(b1-3)GlcNAc", "outline": "as §1"}, "Gal6S(b1-3)GlcNAc6S": {"biological_target": "Gal6S(b1-3)GlcNAc6S", "outline": "as §1"}, "Gal6S(b1-4)Glc": {"biological_target": "Gal6S(b1-4)Glc", "outline": "as §1"}, "Gal6S(b1-4)Glc6S": {"biological_target": "Gal6S(b1-4)Glc6S", "outline": "as §1"}, "Gal6S(b1-4)GlcNAc": {"biological_target": "Gal6S(b1-4)GlcNAc", "outline": "as §1"}, "Gal6S(b1-4)GlcNAc6S": {"biological_target": "Gal6S(b1-4)GlcNAc6S", "outline": "as §1"}, "GalNAc(a1-3)Gal": {"biological_target": "GalNAc(a1-3)Gal", "outline": "as §1"}, "GalNAc(a1-3)GalNAc": {"biological_target": "GalNAc(a1-3)GalNAc", "outline": "as §1"}, "[16]": {"biological_target": "GalNAc(a1-3)GalNAc(b1-3)Gal(a1-4)Gal(b1-4)Glc", "outline": "as §1"}, "[17]": {"biological_target": "GalNAc(a1-3)GalNAc(b1-3)Gal(a1-4)Gal(b1-4)GlcNAc", "outline": "as §1"}, "GalNAc(b1-3)Gal": {"biological_target": "GalNAc(b1-3)Gal", "outline": "as §1"}, "[18]": {"biological_target": "GalNAc(b1-3)Gal(a1-4)Gal(b1-4)GlcNAc", "outline": "as §1"}, "[19]": {"biological_target": "GalNAc(b1-3)Gal(a1-4)Gal(b1-4)GlcNAc(b1-3)Gal(b1-4)Glc", "outline": "as §1"}, "[20]": {"biological_target": "GalNAc(b1-3)Gal(a1-6)Gal(b1-4)Glc", "outline": "as §1"}, "GalNAc(b1-3)GalNAc": {"biological_target": "GalNAc(b1-3)GalNAc", "outline": "as §1"}, "GalNAc(b1-3)GlcNAc": {"biological_target": "GalNAc(b1-3)GlcNAc", "outline": "as §1"}, "GalNAc(b1-4)Gal(b1-4)Glc": {"biological_target": "GalNAc(b1-4)Gal(b1-4)Glc", "outline": "as §1"}}, "note": "Some of the results follow."}
{"binder": "B1", "values": [{"measurement": "glycan array binding signal (z-score)", "setting": "[1]", "result": -0.168}, {"measurement": "glycan array binding signal (z-score)", "setting": "[2]", "result": -0.201}, {"measurement": "glycan array binding signal (z-score)", "setting": "[3]", "result": -0.254}, {"measurement": "glycan array binding signal (z-score)", "setting": "[4]", "result": -0.361}, {"measurement": "glycan array binding signal (z-score)", "setting": "[5]", "result": -0.451}, {"measurement": "glycan array binding signal (z-score)", "setting": "[6]", "result": -0.411}, {"measurement": "glycan array binding signal (z-score)", "setting": "[7]", "result": 4.53}, {"measurement": "glycan array binding signal (z-score)", "setting": "[8]", "result": 0.078}, {"measurement": "glycan array binding signal (z-score)", "setting": "[9]", "result": 2.35}, {"measurement": "glycan array binding signal (z-score)", "setting": "[10]", "result": -0.092}, {"measurement": "glycan array binding signal (z-score)", "setting": "[11]", "result": -0.368}, {"measurement": "glycan array binding signal (z-score)", "setting": "Gal(b1-4)GlcNAc6P", "result": -0.305}, {"measurement": "glycan array binding signal (z-score)", "setting": "Gal(b1-6)Gal", "result": -0.308}, {"measurement": "glycan array binding signal (z-score)", "setting": "Gal3S(b1-3)GalNAc", "result": -0.454}, {"measurement": "glycan array binding signal (z-score)", "setting": "Gal3S(b1-3)GlcNAc", "result": -0.342}, {"measurement": "glycan array binding signal (z-score)", "setting": "[12]", "result": -0.423}, {"measurement": "glycan array binding signal (z-score)", "setting": "Gal3S(b1-4)Glc", "result": -0.422}, {"measurement": "glycan array binding signal (z-score)", "setting": "Gal3S(b1-4)Glc6S", "result": -0.422}, {"measurement": "glycan array binding signal (z-score)", "setting": "Gal3S(b1-4)GlcNAc", "result": -0.451}, {"measurement": "glycan array binding signal (z-score)", "setting": "[13]", "result": -0.201}, {"measurement": "glycan array binding signal (z-score)", "setting": "[14]", "result": -0.11}, {"measurement": "glycan array binding signal (z-score)", "setting": "[15]", "result": -0.387}, {"measurement": "glycan array binding signal (z-score)", "setting": "Gal3S4S(b1-4)GlcNAc", "result": -0.005}, {"measurement": "glycan array binding signal (z-score)", "setting": "Gal3S6S(b1-4)GlcNAc", "result": -0.196}, {"measurement": "glycan array binding signal (z-score)", "setting": "Gal3S6S(b1-4)GlcNAc6S", "result": -0.301}, {"measurement": "glycan array binding signal (z-score)", "setting": "Gal4S(b1-4)GlcNAc", "result": -0.404}, {"measurement": "glycan array binding signal (z-score)", "setting": "Gal4S6S(b1-4)GlcNAc", "result": -0.314}, {"measurement": "glycan array binding signal (z-score)", "setting": "Gal6P(b1-4)GlcNAc", "result": -0.456}, {"measurement": "glycan array binding signal (z-score)", "setting": "Gal6S(b1-3)GlcNAc", "result": -0.334}, {"measurement": "glycan array binding signal (z-score)", "setting": "Gal6S(b1-3)GlcNAc6S", "result": -0.401}, {"measurement": "glycan array binding signal (z-score)", "setting": "Gal6S(b1-4)Glc", "result": -0.435}, {"measurement": "glycan array binding signal (z-score)", "setting": "Gal6S(b1-4)Glc6S", "result": -0.557}, {"measurement": "glycan array binding signal (z-score)", "setting": "Gal6S(b1-4)GlcNAc", "result": -0.448}, {"measurement": "glycan array binding signal (z-score)", "setting": "Gal6S(b1-4)GlcNAc6S", "result": -0.246}, {"measurement": "glycan array binding signal (z-score)", "setting": "GalNAc(a1-3)Gal", "result": 0.388}, {"measurement": "glycan array binding signal (z-score)", "setting": "GalNAc(a1-3)GalNAc", "result": -0.428}, {"measurement": "glycan array binding signal (z-score)", "setting": "[16]", "result": -0.347}, {"measurement": "glycan array binding signal (z-score)", "setting": "[17]", "result": -0.151}, {"measurement": "glycan array binding signal (z-score)", "setting": "GalNAc(b1-3)Gal", "result": -0.243}, {"measurement": "glycan array binding signal (z-score)", "setting": "[18]", "result": 0.245}, {"measurement": "glycan array binding signal (z-score)", "setting": "[19]", "result": -0.316}, {"measurement": "glycan array binding signal (z-score)", "setting": "[20]", "result": -0.462}, {"measurement": "glycan array binding signal (z-score)", "setting": "GalNAc(b1-3)GalNAc", "result": 2.28}, {"measurement": "glycan array binding signal (z-score)", "setting": "GalNAc(b1-3)GlcNAc", "result": -0.335}, {"measurement": "glycan array binding signal (z-score)", "setting": "GalNAc(b1-4)Gal(b1-4)Glc", "result": -0.408}]}
